Test results from the supplement of paper PMC10681739.
± gives the standard deviation of the averaged measurements. Over roughly 4,000 sequences, “arbitrary fluorescence units” has its median near 830; the highest 2% begin near 6,500. This part holds few or none of the hits.

target: RUNX1 (UniProt Q01196); assay: RUNX1 binding intensity (PBM fluorescence), RUNX1 alone (arbitrary fluorescence units); higher = stronger binding; conditions: RUNX1 concentration 2 nM; ETS1 concentration 0 nM
Method: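 gcPBM on 36-bp genomic-derived probes (partner site mutated) containing one RUNX1 site and no ETS1 site. Recombinant human RUNX1 (2 nM) was incubated alone or with ETS1 (25 nM) and detected by anti-RUNX1 antibody fluorescence. Values are medians over 4 replicate spots (not normalised). The probes sit in constant array flanks that are not printed.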
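Also: Full-length recombinant human RUNX1 bound to double-stranded DNA microarray spots, detected with an Alexa488-labelled secondary antibody after the anti-RUNX1 primary, read as scanned spot fluorescence.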

Chain of UniProt Q01196 (Q01196 whole entry): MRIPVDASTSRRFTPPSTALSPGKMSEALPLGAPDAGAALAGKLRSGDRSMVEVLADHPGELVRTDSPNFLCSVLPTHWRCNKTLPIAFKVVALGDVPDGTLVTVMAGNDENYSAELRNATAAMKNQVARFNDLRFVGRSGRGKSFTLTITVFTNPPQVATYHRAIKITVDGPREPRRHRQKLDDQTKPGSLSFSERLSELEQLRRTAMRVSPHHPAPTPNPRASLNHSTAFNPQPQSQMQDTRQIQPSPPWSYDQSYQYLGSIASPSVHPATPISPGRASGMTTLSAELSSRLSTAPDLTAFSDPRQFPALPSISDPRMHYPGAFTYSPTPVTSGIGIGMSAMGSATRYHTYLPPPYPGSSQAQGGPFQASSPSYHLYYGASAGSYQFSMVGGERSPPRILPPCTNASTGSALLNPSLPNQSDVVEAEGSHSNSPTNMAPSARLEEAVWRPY

| Sequence | RUNX1 binding intensity |
| --- | --- |
| AGACCCGAAAGAACTTGTCCCAGTGTTGACCACACC | 829 |
| GGCTGATCAGATCCCTGCTGCGGGCTTAAATAGAGT | 739 |
| AGCTGCCAACCGCAGCGCTACTCCCGGCCGCCTCCG | 3850 |
| TGCCTGTGGTCTTTTGAGAGGTGGGGAGGTGGGCGA | 947 |
| GCTTACACTGCCTCCCTGAACCCCTGCGGTTTCACA | 3440 |
| ACACCGCTCATGAAGACAAAGCCACACCTCACACCG | 972 |
| GCATGAAGACAAAGGGCATGGTTTGTGTGGTGCCCC | 707 |
| CAACAACCGAAAGTGGGGCGGGCCGCAGTACCCGCC | 720 |
| AGCTGCATTTACGGGCAGGCAATGAAACCACAGAGT | 934 |
| AGGTGTGGGTGACTCAGAGCGGGCTGATGAGAACAG | 780 |
| ACCAGAGAAGGAACTACACAGTAAACCCACTGCCTC | 914 |
| CCCGGAGGACGTTCGGCCTCTGTGAGCCGCAACCTT | 758 |
| CATCTCTCTGTGGCTTCCCTGTGACTTTCGCAGGTG | 1130 |
| TCCCGCCTACCGCGAAAAACGCGCAAATACGGTGGC | 914 |
| GGTCGCTGTGGTGACGGGGGAGGCAATTCTGTCCGT | 788 |
| GAGGTCCTGGTGGTTTCATTTCAGGGTGCAGCTTCT | 796 |
| TTGAGCCTAACCACTGCACGAGCACAGGGTGTGGGA | 748 |
| CCCAGAGATGCGGTGCATGTGGCAGCATGGCCCAGC | 1380 |
| GGCAGGAGCAGCCGCAAACTAGGCCCGAAAACTGTC | 921 |
| GCGAGAGGGATGAATTGACTCACCAACCACAACAAA | 929 |
| TGGCGCTTTCTGTCGCTACCGCTGCGGCCCAGGGCC | 782 |
| GCAGTCCTGAGGTGGGTATTTATTTGCTGCTGTTCT | 830 |
| CTTCAAAGTCAGGCAACCGTTAAACCACACTGCATC | 1100 ± 59 |
| GATAAGCGGTTTCTAATGAGCTCACTGGTTGCCGAT | 777 |
| GTTTACAAAACCAAGCCCTTGACGTCTTCATGGACC | 824 |

| Sequence | RUNX1 binding intensity |
| --- | --- |
| GTTTTGTGGCCTAAAGAAACATATGGTCAGGCTGAT | 815 |
| CCCCGTACGGGGAGGAGCGAGGCCCGCGGTTGTCCC | 726 |
| CCTCTGTGGTTTTTAAGAGTAACACACAGAAAGGAC | 3270 |
| CTCCCCTGAACACGCGAGTCTCCTGTCGCGGTTCCA | 961 |
| TCCTGTGGCTTAGCTGGGAGAACACGATGACAGCAA | 903 |
| CCAACGCTCCCCGCAGCGCGTTACGGAGCCGGTCCT | 878 ± 15 |
| GGGTTCTCCGCGCGCCAGCTGAGGTGGTTGCTGGGA | 730 |
| TGTAAGTCAATTCCTGTCGTGGTCAGGTCTCCTCTC | 827 |
| CTGTCCAGCCCACAGAGGCCCCTGAAAGCCAGTGCC | 865 |
| AGCACCCGGGAGTCGGAGCTGCGCACGCACCGCGGG | 709 |
| ACTCAGCCCACAAAGCTAACAGCAGCAAGTGCTTGG | 828 |
| TCTCTTTACCGCGAGGAAAGCTGGGCAATGTAGTGC | 953 |
| TCAAAGACTCAGCGGTTACCCCCTTCAGGGCCGCGC | 816 |
| TGTTTGTTGCCGAAGATTAGCCAGCCTGCGGTAGAG | 833 |
| TACCAAAAAGCTACCACAGAACGGAGGAGAACACGA | 875 |
| TCCCACTGCGACCGAAGCACAGCGGTTAAGATTGCA | 725 |
| TCCTCTCCTTGCCGCGAGACCTTGCGCGGTTATCCA | 1010 |
| TCGCAGATACCACACCCACCCGAAAGTCCTCCTGGC | 1050 |
| GTTGTCTTCTTTCTGAGTAAACCGCAGTGCAGAGAA | 4560 |
| GGGAGGCCCCATCGTGTGTGGCTGTGGCTTTTGCCT | 762 |
| GCAGGACTGCCTGTGTTGTGCTAACCTCAAATTACA | 808 |
| TGAGAAAACAGAAAGCGCCCAGTCACCACAGAAAGC | 753 |
| GCCTTGCGGCGAGGCGGGCCGGAGCGACGAAAAGCT | 884 |
| GGCCAAGGAGGCGGCCCCCTAAAACCGCTCCCGGGA | 665.9 ± 5.3 |
| CGGCAGCTGCACCGCAGGGACATCTTCGGCCAGAGC | 870 |

| Sequence | RUNX1 binding intensity |
| --- | --- |
| TCTACACCCTGCAGTTCTCCATTGTGGCCATTAGGT | 922 |
| TTAGAGTCTGTGGGGCTCTTAGCTGGGAATTGATAC | 750 |
| GGCACACTGCGGTCGCACCATAAGCTTGCTGGATGG | 1690 |
| TCTTTGCTGGTGGTTACCTTTACAGGCAATCTCTTA | 827 |
| CGTGGCCCGAAAGCTCTCAGCGGCGAGCACCGCGGG | 675 |
| CCTGGTCCGGGAGCGCTGTCCCCGCCTCCCGCATAG | 912 |
| GCGGACCACGAGCCTCCTGGGTGCCGTACGCAGATG | 801 |
| GGGGACCTGAAAGGGAGGGGTGGGCCGCAGGCGCCG | 779 |
| TGTGACCACAGCTGGGGGCGGGGCAGCAAGTAGAAG | 938 |
| GCTTCTTACGGCCGGGCCGAGAGGTGGTTACATTCG | 750 |
| CCGTGGTTGCAAGAAACACCCACCATTCCCGGGTCT | 775 |
| CGGGACCTGATTCCTTGGGAACCACAAGATAAGACC | 794 ± 8.7 |
| GTCACAGAGGGAGCAAGGCCGAACCGCGGGAGCCTA | 770 |
| CCACACCTAACCACAGGGGAGGTTGGGAATTGAAGT | 1550 |
| TTGTGGCTAATGGCTCAGCAGGATTAGGCAGCAACT | 713 |
| CAAGGTGCTGTGGTCACATAAGCAGCAAGAGCCCCA | 907 |
| GGCCGCCGATTCCCGTCCAGGGCCGCAGTCTGCCCG | 866 |
| AAATGTAGCCCGGGACCAAGTGTGCGGTGACGACTC | 697 |
| TGACCTCCTCCTCTTCACTAACAGAAACCTCAATTT | 1370 |
| GCAGGTTTTGTGGGCCGCTTCCACAGTAAAACATGC | 783 |
| TCGGGCTGCCGCAGAGCAGCTATTGCCTGTCTGCAC | 686 |
| TGCCTGAAGCCCGCCAGGCACAGGACCCGCAGGGGT | 676 |
| GGGGACGCCCCTCCGCGCTGCGGCGGTGGTCGGGAG | 609 |
| TTGAATTTACCACGCGGAAAGCAGCTTTTCATGTGC | 698 |
| CCCTAGCCGCAGCCCAAGATCCTCCCACGGGGAGTG | 1630 |

| Sequence | RUNX1 binding intensity |
| --- | --- |
| TCCAGCTGAAGGGGGCATCTTTGCGGCAGAGGCAGC | 755 |
| GCCCTTGCTCCCGGCGCGCAGGGTGTGGTCCCCGAG | 747 |
| TGCTGATTCCTCTGCTGCCGAAGCGGTTTCTTCCAC | 1020 |
| ACTGCTCAACCACACACAAGAACAGCAGCATGAGGT | 1050 |
| GGTGTGACAACCACAAACAGCTCCCTGCCAGAGTCC | 1410 |
| TTGCTCCCGTAAGCCCCGCCCGACCGCGGCTCCTGA | 1020 |
| CCCGCCGTAAGGACGCGTCTGCGTCTCTGCGGCGAG | 654 |
| AGGCCTCGCCTCCTCTCCTGACCACACCCTGCAGCT | 1130 |
| GTTTATGGCAGCAAAGCCTGATAACCCACAAACCCT | 852 |
| AAGGAACTGTGGTAAGAGAAGGCAGTGGTAGCCACT | 904 |
| GGCCAGGCAGCAAGTCCCGCGCCACAAGCGGCCGTC | 725 |
| CTGGAGCCCACAACAACTCCGGGCCGAAGCAGCAGG | 801 |
| TCCCACACCCTGTGCTCGTGCAGTGGTTAGGCTCAA | 660 |
| GGGTGCAGCTGGAAGGTTGAGGTCAGATCCTCCCAG | 752 |
| CGGTGTGAGGTGTGGCTTTGTCTTCATGAGTGGTGT | 897 |
| ACAGATCCAAGAAAGCATATCCCGCAAGCAACTGTT | 800 |
| GGGCTTCAGCGAATGAACAAGGTTACCACGGGGAGT | 759 |
| GAGGACTTTCGGGTGGGTGTGATATCTGCGGGCCCG | 764 |
| TCCCCTGTCTTACGGAGGCTGCGGCGCAGCGGCGCA | 751 |
| TGCTGTGGGGACAGCCCAGGTGCATGAAGGGGCCAG | 686 |
| GGACGAGGCAGCCCCTGTATCACCCCACAAGAAGCC | 871 |
| GAGCGCGGCACTCGCCACGGTAAGGATTACCACAGG | 742 |
| AATATAGTGGTTCAAAACAAGAGGCAGTGTGGCAAG | 817 |
| AACAGCAAGTGGTCTTAGAGATCATGCGGTTCAGAG | 790 |
| CCCGTGCACCGCAGCCTTACGGGGACGTGCTCAGGG | 987 |

| Sequence | RUNX1 binding intensity |
| --- | --- |
| GATTAAGAGGAGGTGTGTGTGATTATTACCGCTGGA | 805 |
| GAGGGACACGATGCCGCCAGGAACCACAAGAGCTTC | 750 ± 38 |
| CTGGCCCCTTCATGCACCTGGGCTGTCCCCACAGCA | 924 |
| CAGTGTTCCGCGTACGGGGGTTTGTGGGAGTTGCCT | 872 |
| CCTACAATTCCCAGAGAACCTAGCGGTTACGCCAAC | 1220 |
| TGCGTCCATTCGGGGCTTCTGGCCGCAAGGCGCCAG | 743 |
| GGGCTTACGGCTGAACCCATGGCTGCGGGCTGTGCT | 704 |
| GTCTCTTGGTGGTTGATAAGCTAAACGGAGGTGAGT | 1020 |
| GGATGACACCCGGCACCAACTTAACCACTAATCTCA | 1090 |
| AGTGCTGTGGGCGAGACTGCACAGCAAATAAAAAGA | 801 |
| TCCTGCGGCTGAGTGGCAGCTTCCATTCGGTGGGTT | 883 |
| TCTCGTCCAGTCCTTGCTCCCCCTCCCCGCAGCGCT | 1330 |
| CGGCGGCTGCGGGCTGAGCGGCGAGTTGCCGATTTA | 802 |
| CTTTTTTGTGGCTTACCAGAACCAATATTCGGCATT | 1450 |
| GTGGGGGGCGGGTGGTTGGGGCGTCAGGTTCGCCGC | 830 |
| AACCATTACAGGGTGTGAGATTCAAACCACTAACAG | 802 |
| AGCGTGCTCTGCGGTTCACTTCCAGCCAGCCCCTCC | 2530 |
| CCACTGCCGTTGTGGGTAACGCGGAGGTGGAAGAAC | 936 |
| GTTGTGCAAGCCACAGATGATATGGGGAACTAGTTT | 794 |
| GACCTGCGGTGGAGGGCGCGACCTTGGCTTGCTGGC | 1130 |
| AACGGACCCGAAAGGGGCAGGTCTTGTGGGCGGGTC | 693 |
| TGCTGTCAAGCCACAGGCCTTTGCTGCTATCGTTTG | 816 |
| TGAAGAACCCGCAGCAGCTCCCATGATGAACTGGTT | 760 |
| AATGCAGCATCTCCTCTCCAGTTCACCACAGGCCCC | 1520 |
| GAGTTCGGCCTCGCCGTTTGTCCCTTGCGGTACCCG | 788 |
